# Experimental data taken from PubChem BioAssay AID651568 (National Center for Advancing Translational Sciences (NCATS), 2012).
# In all, about 1,200 compounds went through this assay and about 55 (5%) were called active. About 15% were inconclusive and are not listed. Calls follow the shape of the dose curve; as a rule, active = well fitted inhibition curve with a large enough effect; inconclusive = small, poorly fitted or top-dose-only effect; inactive = no such curve, though single readings can be large or run the other way. Some of the results follow.
# Assay: qHTS Assay to Find Inhibitors of Chronic Active B-Cell Receptor Signaling: Hit Validation in Renilla Reporter Assay; also: nearly all actives have a fitted effect of over 70% in size
# Conditions: TMD8 IkB-Renilla luciferase reporter, NF-kB signaling; series mostly up to 57.5 µM; activity change, negative = inhibition: at the top concentration
# Method in brief: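 Dual-Glo luminescence read-out of constitutively expressed IkB-Photinus/Renilla luciferase reporters in ABC-DLBCL lines, used to retest primary hits; reporter enzymes differ from the click beetle luciferases used in the primary screen.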
# % is scaled to controls: 0 for no effect and ±100 for the full control effect; potency is read from the fitted curve at half-maximal effect.
SMILES,"activity change, negative = inhibition",Potency
COc1cc(/C=C2\OC(=O)c3c(OC)cccc32)ccc1O,inactive: 1.72%,
Cc1noc(C)c1COc1cccc(C(=O)OCC(=O)N2CC(=O)Nc3ccccc32)c1,inactive: -1.58%,
Nc1nc(SCc2nc(-c3ccccc3)no2)[nH]c(=O)c1-c1ccccc1,inactive: -4.57%,
CCOC(=O)CSC1=C(C#N)C(c2ccc(C)s2)CC(=O)N1 (configuration not stated),inactive: -26%,
N#Cc1ccc(-c2cccs2)nc1SCc1cccnc1,inactive: -1.59%,
OC[C@H]1O[C@@H](n2cnc3c(Nc4ccccc4)ncnc32)[C@H](O)[C@@H]1O,inactive: 0.625%,
CC1CCC(n2c(=S)[nH]c3ccccc3c2=O)CC1 (configuration not stated),inactive: 4.25%,
COCc1ccc(O)c2ncccc12,inactive: -11%,
COc1cccc(CN2c3ccc(Br)cc3C(=O)CS2(=O)=O)c1,inactive: -1.35%,
O=C(Nc1cccc2ccccc12)c1cc2c(cc1Br)OCO2,inactive: 2.59%,
CC(=O)N1c2ccc(C)cc2C(c2ccccc2)CC1C (configuration not stated),inactive: -6.66%,
COc1cc(/C=C\C(=O)OCn2nnc3ccccc3c2=O)cc(OC)c1OC,inactive: 3.59%,
NCCNC(=O)Cc1cccc(NC(=O)Cc2ccc(Nc3ncnc4c3ncn4[C@@H]3O[C@H](CO)[C@@H](O)[C@H]3O)cc2)c1,inactive: -1.93%,
CCC1=Nc2cc(C(=O)NCCCOC)ccc2Sc2ccccc21,inactive: 0.82%,
Cc1ccc(S(=O)(=O)N(C)C[C@@H]2Oc3ccc(NC(=O)CCC(F)(F)F)cc3CC(=O)N([C@@H](C)CO)C[C@@H]2C)cc1,inactive: 3.29%,
CCOC(=O)c1cnc(Nc2nc3ccccc3o2)nc1CSC(=S)N1CCCCC1,inactive: -1.89%,
COc1ccc(CCn2c(N)cc(=O)[nH]c2=S)cc1OC,inactive: 2.32%,
Cc1ccc(C(=O)c2cc([N+](=O)[O-])ccc2N2CCOCC2)c(C)c1,inactive: -2.34%,
COCCCNC(=O)C[C@H]1C[C@H](C(=O)N2CCCCC2)[C@@]2(C)c3[nH]c4ccc(Cl)cc4c3CCN2C1=O,inactive: 5.47%,
CCOc1ccccc1NC(=O)N1CCC(N2CCN(Cc3ccccc3)C(=O)C2=O)CC1,inactive: -4.14%,
COc1ccc(Nc2cc(C)nc(-n3nc(C)cc3C)n2)cc1,inactive: -15.2%,
CCCOc1ccc(Cn2ccnc2)cc1[N+](=O)[O-],inactive: 1.02%,
S=C(Nc1ccccc1)Nc1nccs1,inactive: 0.806%,
CCc1c(C)c(C#N)c2nc3ccccc3n2c1Cl,,active: 0.953 µM
COc1ccc(-c2nn(-c3ccccc3)cc2C(=O)NC(=S)NNC(=O)c2ccncc2)cc1,inactive: 3.95%,
O=C(/C=C/c1ccccc1)c1ccc(NC2=NCCCS2)cc1,,active: 21.3 µM

SMILES,"activity change, negative = inhibition",Potency
CC(=O)Nc1ccc(Oc2cc(C#N)c(C#N)cc2N2CCOCC2)cc1,inactive: 1.6%,
COc1ccc(-c2[nH]ncc2/C=C(\C#N)C(=O)NC2CC2)cc1,inactive: -9.08%,
COc1cccc(Nc2sc(C(=O)c3ccc(F)cc3)c(N)c2C(=O)NCc2ccc(C)cc2)c1,inactive: -15.8%,
C=CCOc1c(Cl)cc(C(=S)N2CCCC2)cc1OCC,inactive: 14%,
COc1cc(/C=C/c2ccc3cccc(O)c3n2)cc(Br)c1OC,inactive: -19.6%,
Cc1ccc(C(=O)Nc2nc(C)c(C(=O)Nc3ccc4c(c3)CCC4)s2)cc1,inactive: -1.48%,
O=C(CSc1cccc[n+]1[O-])c1ccc(-c2ccccc2)cc1,inactive: -2.81%,
Cc1ccc(C#N)c(SCc2ccccc2F)n1,inactive: 9.28%,
CCC1=Nc2cc(C(=O)NCc3ccco3)ccc2Sc2ccccc21,inactive: 1.17%,
COc1ccc(N2C(=O)CS/C2=N\C(=S)Nc2ccccc2)cc1,inactive: 9.1%,
C=CCn1c(O)c(N=NC(=S)Nc2ccccc2C)c2cc(S(=O)(=O)N3CCOCC3)ccc21,inactive: -8.41%,
COc1cc(C(=O)Nc2nc(C)c(Cc3ccc4c(c3)OCO4)s2)cc(OC)c1OC,inactive: -7.31%,
CCc1ccc(/C=N/NC(=O)c2cc(-c3ccncc3)nc3ccccc23)s1,inactive: -16.3%,
COc1ccc(CNC(=O)COc2ccc(C(=O)c3ccc(F)cc3)cc2)cc1,inactive: -1.12%,
C=CCNC(=S)N/N=C/c1ccc(C)s1,inactive: -0.875%,
Cc1ccc(/C=N/NC(=O)c2n[nH]c3c2CCCC3)cc1,inactive: -10.8%,
COc1ccc(OC)c(C2CC(=O)Nc3n[nH]c(-c4ccccc4)c32)c1 (configuration not stated),inactive: 0.477%,
COc1ccc2c(c1)C(C)=CC(C)(C)N2S(=O)(=O)c1ccc(NC(C)=O)cc1,inactive: 1.54%,
CCOC(=O)C1CCN(C(=O)CSc2cc(=O)n(CC)c3ccccc23)CC1,inactive: 4.83%,
Oc1ccc(Nc2nc(-c3cccnc3)cs2)cc1,inactive: -8.48%,
COc1ccccc1N1CCN(Cc2ccc(O)c3ncccc23)CC1,inactive: -19.9%,
COc1ccccc1-c1noc(CSc2nc(N)cc(=O)[nH]2)n1,inactive: -1.85%,
Cc1nc2ccc(S(=O)(=O)Nc3cccc(-c4nc5cccnc5s4)c3)cc2s1,inactive: 44.4%,
COc1cc(C(=O)N/N=C/c2ccsc2C)cc(OC)c1OC,inactive: -11.3%,
COc1cc(/C=N/NC(=S)Nc2cccnc2)cc(OC)c1OC,inactive: 1.2%,
CC(O)c1cccc(-c2ccc(CN3C[C@]4(CO)O[C@@H](CO)C[C@@H]4S3(=O)=O)cc2)c1 (some centres not stated),inactive: 0.336%,
